# According to paper PMC12607630:
# The chains behind the UniProt entries cited, without tags or fusion partners. Residues count along the entry.
# FtsZ^316-383 (bacterial two-hybrid fusion) (P0A9A6, residues 316-383): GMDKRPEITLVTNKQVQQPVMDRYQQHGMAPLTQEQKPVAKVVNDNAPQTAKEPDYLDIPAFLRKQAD
# FtsZ^316-370 (bacterial two-hybrid fusion) (P0A9A6, residues 316-370): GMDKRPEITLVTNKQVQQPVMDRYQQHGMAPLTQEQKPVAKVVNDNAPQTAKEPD
# Results are given in words; binding and its absence hold for the method and conditions named. Some results given as binding are weak or reduced against the parent protein; the word gives no strength. Sequences can lack the tags named with a protein.
# T1: FtsZ^370-383 (bacterial two-hybrid fusion) (Escherichia coli), P0A9A6
# T1 chain: DYLDIPAFLRKQAD
# Tests used:
# Experiment in all cases: two-hybrid; bacterial two-hybrid in strain LYA1 (BTH101, ftsA^R286W); LB plates with antibiotics, 100 µg/mL X-gal and IPTG, 30°C, about 40 hours
# [1] = target: FtsZ^316-383 (bacterial two-hybrid fusion) (Escherichia coli) (UniProt P0A9A6)
# [2] = target: FtsZ^316-370 (bacterial two-hybrid fusion) (Escherichia coli) (UniProt P0A9A6)
# [3] = target: FtsZ^370-383 (bacterial two-hybrid fusion) (Escherichia coli) (UniProt P0A9A6)
# [4] = target: T1, FtsZ^370-383 (bacterial two-hybrid …); settings: remark: other sources report otherwise
Binder,binding [1],binding [2],binding [3],binding [4]
"MinC (bacterial two-hybrid fusion) (protein, UniProt P18196 1-231) MSNTPIELKGSSFTLSVVHLHEAEPKVIHQALEDKIAQAPAFLKHAPVVLNVSALEDPVNWSAMHKAVSATGLRVIGVSGCKDAQLKAEIEKMGLPILTEGKEKAPRPAPTPQAPAQNTTPVTKTRLIDTPVRSGQRIYAPQCDLIVTSHVSAGAELIADGNIHVYGMMRGRALAGASGDRETQIFCTNLMAELVSIAGEYWLSDQIPAEFYGKAARLQLVENALTVQPLN",binds,no binding,no binding,
"FtsA (bacterial two-hybrid fusion) (protein, UniProt P0ABH0 1-420) MIKATDRKLVVGLEIGTAKVAALVGEVLPDGMVNIIGVGSCPSRGMDKGGVNDLESVVKCVQRAIDQAELMADCQISSVYLALSGKHISCQNEIGMVPISEEEVTQEDVENVVHTAKSVRVRDEHRVLHVIPQEYAIDYQEGIKNPVGLSGVRMQAKVHLITCHNDMAKNIVKAVERCGLKVDQLIFAGLASSYSVLTEDERELGVCVVDIGGGTMDIAVYTGGALRHTKVIPYAGNVVTSDIAYAFGTPPSDAEAIKVRHGCALGSIVGKDESVEVPSVGGRPPRSLQRQTLAEVIEPRYTELLNLVNEEILQLQEKLRQQGVKHHLAAGIVLTGGAAQIEGLAACAQRVFHTQVRIGAPLNITGLTDYAQEPYYSTAVGLLHYGKESHLNGEAEVEKRVTASVGSWIKRLNSWLRKEF",binds,no binding,no binding,

# Second part, the binder after the results:
binding [1],binding [2],binding [3],binding [4],Binder
binds,no binding,,,"SlmA (bacterial two-hybrid fusion) (protein, UniProt P0C093 1-198) MAEKQTAKRNRREEILQSLALMLESSDGSQRITTAKLAASVGVSEAALYRHFPSKTRMFDSLIEFIEDSLITRINLILKDEKDTTARLRLIVLLLLGFGERNPGLTRILTGHALMFEQDRLQGRINQLFERIEAQLRQVLREKRMREGEGYTTDETLLASQILAFCEGMLSRFVRSEFKYRPTDDFDARWPLIAAQLQ"
,,,no binding,"SlmA (bacterial two-hybrid fusion), P0C093 1-198 (protein) MAEKQTAKRNRREEILQSLALMLESSDGSQRITTAKLAASVGVSEAALYRHFPSKTRMFDSLIEFIEDSLITRINLILKDEKDTTARLRLIVLLLLGFGERNPGLTRILTGHALMFEQDRLQGRINQLFERIEAQLRQVLREKRMREGEGYTTDETLLASQILAFCEGMLSRFVRSEFKYRPTDDFDARWPLIAAQLQ"
